The whole screen tested about 220,000 compounds, of which about 16,000 (7.3%) were called active. This list was built around the results that the source calls inconclusive (neither active nor inactive); the mix of calls is not that of the screen. Calls come from the whole dose curve; as a rule, active = well fitted inhibition curve with a large enough effect (not every such curve was filed as active); inconclusive = small, poorly fitted or top-dose-only effect, or another doubt; inactive = no such curve, though single readings can be large or run the other way. No potency is given beside an inconclusive call; the fits are too rough.
Each molecule was assayed against Aldehyde dehydrogenase 1A1 (Homo sapiens) (UniProt P00352) (assay: qHTS Assay for Inhibitors of Aldehyde Dehydrogenase 1 (ALDH1A1)). Settings: Purified ALDH1A1, NADH fluorescence, propionaldehyde substrate; series mostly up to 75.3 µM.
Potency is the fitted concentration of half-maximal effect; tags give direction and shape of the fitted curve.

Sequence of UniProt P00352 (P00352 whole entry, looked up): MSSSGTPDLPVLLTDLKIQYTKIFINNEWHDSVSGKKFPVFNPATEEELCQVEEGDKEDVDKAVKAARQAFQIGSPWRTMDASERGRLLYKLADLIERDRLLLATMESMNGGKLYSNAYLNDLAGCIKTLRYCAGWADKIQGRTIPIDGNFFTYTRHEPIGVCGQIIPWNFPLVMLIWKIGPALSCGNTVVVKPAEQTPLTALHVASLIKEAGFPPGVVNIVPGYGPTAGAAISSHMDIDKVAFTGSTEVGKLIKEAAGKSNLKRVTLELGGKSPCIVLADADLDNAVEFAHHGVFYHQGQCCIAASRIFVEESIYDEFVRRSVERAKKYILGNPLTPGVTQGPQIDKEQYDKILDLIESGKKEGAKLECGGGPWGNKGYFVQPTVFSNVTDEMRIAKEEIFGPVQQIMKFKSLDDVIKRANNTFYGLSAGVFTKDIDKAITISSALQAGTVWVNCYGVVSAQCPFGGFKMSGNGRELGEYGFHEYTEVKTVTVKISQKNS

SMILES | Potency
CS(=O)(=O)N(Cc1ccc(C(=O)NC2CCCC2)cc1)c1ccccc1 | inactive
O=c1c2ccccc2nnn1CSc1nnc2sc3ccccc3n12 | active: 12.6 µM
Cc1cc(C)cc(Cn2ncc(Cl)c(Cl)c2=O)c1 | active: 28.2 µM
Cc1ccc2c(=O)c3ccccc3n(CCCN)c2c1C | inactive
CCCC(=O)NC(NC(=S)Nc1ccc(N=Nc2ccccc2)cc1)C(Cl)(Cl)Cl (stereo unspecified) | inconclusive [inhibitor, single point]
Fc1cccc(-c2cc3nc4c(c(N5CCC6(CC5)OCCO6)n3n2)CCCC4)c1 | inconclusive [inhibitor, single point]
O=C(NCc1cccnc1)C1c2ccccc2C(=O)N1Cc1ccco1 (stereo unspecified) | inconclusive [inhibitor, single point]
O=C(CN(c1ccc(Cl)cc1)S(=O)(=O)c1ccc(Cl)c([N+](=O)[O-])c1)NCCc1ccc(F)cc1 | inactive
Cc1cc(C)c(S(=O)(=O)NC(C)C)c(C)c1-n1cnnn1 | inactive
CCC(=O)C1=C(O)C(c2cccc(Oc3ccccc3)c2)CCC1=O (stereo unspecified) | inactive
O=C(CSCC(=O)Nc1nccs1)Nc1ccccc1 | inactive
Cc1nc(NC(=O)COC(=O)C(NC(=O)c2ccco2)C(C)C)c(Cl)cc1Cl (stereo unspecified) | active: 25.1 µM
O=C1c2ccc3c4c(ccc(c24)C(=O)N1NC(=O)C(F)(F)F)CC3 | inconclusive [inhibitor, single point]
CC(NC(=O)c1ccco1)C(c1cccs1)N1CCN(c2ccc(F)cc2)CC1 (stereo unspecified) | inconclusive [inhibitor, single point]
CCN(CC)S(=O)(=O)c1cc(C(=O)OCC(=O)Nc2cccc(Br)c2)ccc1F | inactive
Cc1ccc(S(=O)(=O)NN=C2CCN(Cc3ccccc3)CC2)cc1 | active: 3.55 µM
COc1ccc(Cl)cc1NC(=O)COC(=O)CCCN1C(=O)c2ccccc2C1=O | inconclusive [inhibitor, single point]
O=C(/C=C/c1ccccc1)/C=C/c1ccccc1 | active: 31.6 µM
S=C(Nc1cccc(Cl)c1)Nc1cccc2cnccc12 | active: 3.16 µM
Cc1[nH]n(C(C)(C)C)c(=O)c1Sc1ccccc1 | inconclusive [inhibitor, partial curve]
Cc1sc2ncnc(Sc3ccccc3C(=O)Nc3ccc(Br)cc3)c2c1C | inconclusive [inhibitor, partial curve]
CC(=N)C1=C(O)CC(C)(C)CC1=O | inconclusive [inhibitor, single point]
O=C(NCCC1=CCCCC1)C(=O)NCC1OCCCN1S(=O)(=O)c1ccc(F)cc1 (stereo unspecified) | active: 22.4 µM
Cc1cc(NC(=S)NC(=O)c2ccccc2)ccc1-c1cc2ccccc2oc1=O | active: 8.91 µM
COCCSc1nnc(NC(=O)c2ccc(OC)c([N+](=O)[O-])c2)s1 | inconclusive [inhibitor, single point]
Cc1ccc(NC(=O)COC(=O)CNC(=O)c2ccc(Br)cc2)c(C)c1 | inconclusive [inhibitor, partial curve]

SMILES | Potency
N#C/C(=C(/O)COc1ccccc1)c1nc2ccccc2s1 | inactive
C=CCn1c(N)c(C(=O)N2CCOCC2)sc1=S | inconclusive [inhibitor, single point]
C1CC1Cc1noc(CN2CCN(CC3CC3)CC2)n1 | inactive
COc1ccc(-c2nc(CN3CCN(c4cc(C)nc(C)c4)CC3)c(C)o2)c2ccccc12 | inactive
O=C(COc1ccccc1[N+](=O)[O-])N/N=C/c1ccccn1 | inconclusive [inhibitor, single point]
O=C(CSc1nc2ccccc2s1)NC(=O)NCc1ccco1 | active: 31.6 µM
CN1/C(=C/C2CC(=O)N(c3cccc4ccccc34)C2=O)C(C)(C)c2ccccc21 (stereo unspecified) | inactive
COc1ccc2c(c1)cc(C(=O)O)n2C | inconclusive [inhibitor, partial curve]
Oc1ccccc1/C=N/c1c(-c2ccco2)nc2ccccn12 | inconclusive [inhibitor, partial curve]
CSCC(=O)NS(=O)(=O)c1ccc(C)cc1 | inactive
CC1CCN(c2nc(-c3cccnc3)nc3scc(-c4ccccc4)c23)CC1 | inactive
CC(C)c1nnc(NC(=O)CCN2C(=O)c3ccccc3C2=O)s1 | inconclusive [inhibitor, single point]
Cc1ccc(CN(C(=O)c2sc3ccccc3c2Cl)C2CCS(=O)(=O)C2)cc1 (stereo unspecified) | inconclusive [inhibitor, single point]
Cc1cccc(CNc2ncnc3ccc(-c4cccnc4)cc23)c1 | inconclusive [inhibitor, single point]
COCC(C)n1c(C)cc(C(=O)Cn2nc(C(=O)O)c3ccccc3c2=O)c1C (stereo unspecified) | inconclusive [inhibitor, single point]
N/C(=N\OC(=O)c1cccc2ccccc12)c1cccnc1 | inconclusive [inhibitor, partial curve]
CCC(C)NC(=O)Cn1c(=O)n(CCCCCC(=O)Nc2ccccc2)c(=O)c2sccc21 (stereo unspecified) | inactive
COCC(C)NC(=O)NC1(C(F)(F)F)Oc2ccc(Cl)cc2O1 (stereo unspecified) | active: 22.4 µM
CC1=C(C(=O)Nc2ccccn2)C(c2ccc(Br)cc2)NC(=S)N1 (stereo unspecified) | active: 0.708 µM
Cc1c(C(=O)N2CCCc3ccccc32)oc2ccc(S(=O)(=O)N3CCOCC3)cc12 | inconclusive [inhibitor, partial curve]
COc1ccccc1-n1c(C)cc(/C=C2/C(=N)N3C(=NC2=O)SN=C3S(C)(=O)=O)c1C | inconclusive [inhibitor, single point]
O=C(NCC1CCCO1)C1c2ccccc2C(=O)N1C1CCCCCCC1 (stereo unspecified) | inactive
Cc1ccc(-c2nnc(SCC(=O)Nc3ccccc3N3CCOCC3)o2)cc1 | inactive
O=C(Cc1c(F)cccc1Cl)Nc1ccncc1 | inactive
CCOc1ccc(N(CC(=O)NCc2ccccc2)S(C)(=O)=O)cc1 | inactive

Reference: PubChem BioAssay AID1030 (National Center for Advancing Translational Sciences (NCATS), 2008)
